Assay results as given in PMC10726135.
This is one part of the list. At the low end of the ranking the order means little. The protein was read in a cell extract, so binding may be indirect.

Each sequence was assayed against T1, HNF4alpha8 (COS-7 nuclear extract) (UniProt P41235-5) (assay: protein-binding microarray). Conditions: COS-7 nuclear extract on double-stranded Agilent 4x180k PBM; binding buffer, salt, pH and temperature not given; high values mean tight binding; double strand, one strand shown; sequences stand for … in …GCCTAGGGAGATTAGAGTATCGGTCGA.
T1 sequence: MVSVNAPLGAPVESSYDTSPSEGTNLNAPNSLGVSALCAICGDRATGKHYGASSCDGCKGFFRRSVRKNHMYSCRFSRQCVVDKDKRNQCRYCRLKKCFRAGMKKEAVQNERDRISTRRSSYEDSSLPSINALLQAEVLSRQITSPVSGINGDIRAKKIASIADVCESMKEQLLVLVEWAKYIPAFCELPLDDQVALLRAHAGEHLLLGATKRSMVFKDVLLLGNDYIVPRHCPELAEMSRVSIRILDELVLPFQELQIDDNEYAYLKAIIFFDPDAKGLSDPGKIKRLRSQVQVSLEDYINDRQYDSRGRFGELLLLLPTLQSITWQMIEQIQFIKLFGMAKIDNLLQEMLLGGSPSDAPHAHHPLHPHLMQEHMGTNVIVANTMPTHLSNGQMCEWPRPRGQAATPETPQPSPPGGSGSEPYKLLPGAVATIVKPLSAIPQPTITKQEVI

**Q.** Which binding signal (log2 normalized intensity) does the source give for AACTTTTTCCTTTTCTTATCTGTTCACAGT here?
**A.** 1.4

**Q.** How did the binding signal (log2 normalized intensity) turn out when TAGGGGGCAATTTCCCTGGTCGACCTCCCC was run?
**A.** 3.01

**Q.** Which binding signal (log2 normalized intensity) does the source give for CAGCTGGATTGTTACATCATAGTGTTTGCC here?
**A.** 1.19

**Q.** CCCAAGCTGTTATTCCAGGCACAAGAATGG was tested. Which binding signal (log2 normalized intensity) did it give?
**A.** -1.31

**Q.** For AATATTCTGGCTTCTCGTGAGTATTTTTTC, which binding signal (log2 normalized intensity) is on record?
**A.** 1.17

**Q.** How did the binding signal (log2 normalized intensity) turn out when ATTCTAATCCTCTGGTCTTTGCCCCAGCTC was run?
**A.** 3.77

**Q.** With AGAATGGGCCAAGCTTAGGAATTCCAAGAA as the sequence, how does the binding signal (log2 normalized intensity) read?
**A.** -1.22

**Q.** How did the binding signal (log2 normalized intensity) turn out when CCCTCACTGAATATGTTCGGGAGACATGTG was run?
**A.** 1.67

**Q.** How did the binding signal (log2 normalized intensity) turn out when AGCACACACGAGCTGTGCGCTTAGTCCATG was run?
**A.** -1.38

**Q.** CATGTAACCAAAATGCCAATAGTGGCTTTG was tested. Which binding signal (log2 normalized intensity) did it give?
**A.** -1.28

**Q.** Which binding signal (log2 normalized intensity) does the source give for AAGGACACAACAGAATGTGACTGCCCTCTC here?
**A.** 2.6

**Q.** For GGGGGAGGTGCAGAGAGGGGCAGGGTTCAC, which binding signal (log2 normalized intensity) is on record?
**A.** 2.81

**Q.** How did the binding signal (log2 normalized intensity) turn out when GCCTGGTCCGCCCTTCCCCGCTCTCCCCGC was run?
**A.** 3.87

**Q.** TGGATTGTACTGTGTCTTGATCTTGCAACT was tested. Which binding signal (log2 normalized intensity) did it give?
**A.** 1.56

**Q.** For ATCCTGAAAACAAATAGAGCAGACTATTAT, which binding signal (log2 normalized intensity) is on record?
**A.** -1.35

**Q.** How did the binding signal (log2 normalized intensity) turn out when GTAGAGCTTATCAAGGCAACTTTGGGCCAA was run?
**A.** -1.32

**Q.** For TGTCTCTGGTTGAAGGGGAGGTTATCTTGG, which binding signal (log2 normalized intensity) is on record?
**A.** 1.48

**Q.** Which binding signal (log2 normalized intensity) does the source give for ATCTTCTTACCCCTTTGCTGATTACCTCAA here?
**A.** 1.55

**Q.** Which binding signal (log2 normalized intensity) does the source give for TGTGGGCCTCACACCCTCTAGGGTAGATAA here?
**A.** -1.33

**Q.** With AAGGATTAGCAGATAAATCTAGGCCTAGGC as the sequence, how does the binding signal (log2 normalized intensity) read?
**A.** -1.1

**Q.** For AATCCTGGATTCCTCCAGCCCTCCTCTCTG, which binding signal (log2 normalized intensity) is on record?
**A.** -0.791

**Q.** TAGGCCACCTGTGTCAACATGGACTTTGTT was tested. Which binding signal (log2 normalized intensity) did it give?
**A.** 6.25

**Q.** Which binding signal (log2 normalized intensity) does the source give for TCCTTCACTAAAGTTACAAGATCTTTGGAC here?
**A.** 3.41

**Q.** Which binding signal (log2 normalized intensity) does the source give for CAAACACTCATTTCACATTGGTGCCCTTTG here?
**A.** 4.06

**Q.** GATAACCTCAAAGAGCATGGCGCCAGGGAG was tested. Which binding signal (log2 normalized intensity) did it give?
**A.** -1.15

**Q.** How did the binding signal (log2 normalized intensity) turn out when GAATCTTAACCAAAGTGTGATTAACAAGCA was run?
**A.** -1.08

**Q.** Which binding signal (log2 normalized intensity) does the source give for TAAAGCTGAGGTATTTTTGCAATCCTCCAC here?
**A.** -0.919

**Q.** With TGACACAGCTGGCCCATGGGCACCTCGTCC as the sequence, how does the binding signal (log2 normalized intensity) read?
**A.** -1.43

**Q.** With CTTTTGTGCTCTGTACCCGGCTGCCCGATA as the sequence, how does the binding signal (log2 normalized intensity) read?
**A.** 0.932

**Q.** CTCTTAGTGAAGGATGGGGACCTTGTTACC was tested. Which binding signal (log2 normalized intensity) did it give?
**A.** 2.04

**Q.** Which binding signal (log2 normalized intensity) does the source give for CTTTGCTCCCACCCTGCAATTCCCCTGGGC here?
**A.** 3.4

**Q.** For ATTATCCCCCGCAACTATTTATGAGTCTTG, which binding signal (log2 normalized intensity) is on record?
**A.** 1.75

**Q.** Which binding signal (log2 normalized intensity) does the source give for TATACATTTTCCCACTTGTATGTCCAAGGG here?
**A.** 1.25

**Q.** Which binding signal (log2 normalized intensity) does the source give for ACAATGTGGGGGTCGGGGCACTGGTCCCCT here?
**A.** 1.26

**Q.** For AGAAATGGCCTTAGGGTGAGGCATCTGGAC, which binding signal (log2 normalized intensity) is on record?
**A.** 0.167

**Q.** How did the binding signal (log2 normalized intensity) turn out when TGACAGGTTTCTTGCTGAAGGTAGGACAGG was run?
**A.** 0.122

**Q.** For AAGTGGTATCCTGCAGTCAGTCTGATTGGT, which binding signal (log2 normalized intensity) is on record?
**A.** 0.637

**Q.** For AAAGCCAACAGTACAGCCTTTGATCTACAG, which binding signal (log2 normalized intensity) is on record?
**A.** -1.24

**Q.** ATGCCAAGTTTCAGGCTATGAATGAAGTCT was tested. Which binding signal (log2 normalized intensity) did it give?
**A.** -1.05

**Q.** Which binding signal (log2 normalized intensity) does the source give for TGCCGGGAAAGGCATACGTGCTTAATCCTG here?
**A.** -1.2
